# In the supplement of paper PMC8728848:
# Some of the results follow.
# B1: PX14343H-pdi-506-26-506 (Parabacteroides distasonis) (protein)
# chain: QPTGTMTTDSKLTSKESALALTNSAYLKNTVFNKMTPGWGCNTILLLEYMTGKATSENSQSNYKDFQDLLVSDRSLYIEDWWQDCYAGIANCNLALQKLGEFENLDASLVNGYMAEVKFMRALYYFYLVRIFGDVPKITTVQSELGELQVSRAPVKEIYDEIIIPDLLEAEQSDLAFSDHTGRVSMGAVKALLADVYLTYAGYPLQGGKSYYAESAKRSLEVIKSNEYTLFTDYESLRLPSQNNKGEFIYQVQFSLNKRHNESVRIFLPSRSGISAYDLEYGSLIPTKEFVESFEKGDKRTEEKQYFFTNYKGHPSKFSPGAAELEFMDLNGYYIYKFFDQVAVDNTAKSDLNWSVYRYTDVLLMYAEAQVNADGTPNQQSIDIVNQIRGRAGLAPFKQTNASAFLEEVWDQRYFDLCYENKMWFDMLRTRKIRDDKSGEYVDFIGYKTNWGKVYTETQLLFPIPLSERQANPNLTQNQGY
# Tests used:
# Assay in all cases: glycan array binding signal (z-score within array); higher = stronger binding
# Conditions in all cases: glycan notation: IUPAC condensed, linker removed
# [1] = molecular target: Neu5Ac(a2-6)Gal(b1-3)GlcNAc(b1-3)[Gal(b1-4)GlcNAc(b1-6)]Gal(b1-4)Glc
# Procedure, shortened: (§1)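 Glycan array data came from 3228 arrays in the Consortium for Functional Glycomics database, and only arrays with an available protein sequence were kept. Glycan names were put into IUPAC-condensed notation, and columns mapping to the same glycan were averaged. The binding signal is a within-array Z-score, averaged across arrays of one protein sequence run at different concentrations or buffers and across linkers. A negative Z-score can be read as non-binding.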
# Neu5Ac(a2-6)Gal(b1-4)Glc = molecular target: Neu5Ac(a2-6)Gal(b1-4)Glc
# Procedure, shortened: as §1
# [2] = molecular target: Neu5Ac(a2-6)Gal(b1-4)GlcNAc
# Procedure, shortened: as §1
# [3] = molecular target: Neu5Ac(a2-6)Gal(b1-4)GlcNAc(b1-2)Man
# Procedure, shortened: as §1
# [4] = molecular target: Neu5Ac(a2-6)Gal(b1-4)GlcNAc(b1-2)Man(a1-3)Man(b1-4)GlcNAc(b1-4)GlcNAc
# Procedure, shortened: as §1
# [5] = molecular target: Neu5Ac(a2-6)Gal(b1-4)GlcNAc(b1-2)Man(a1-3)[Gal(b1-4)GlcNAc(b1-2)Man(a1-6)]Man(b1-4)GlcNAc(b1-4)GlcNAc
# Procedure, shortened: as §1
# [6] = molecular target: Neu5Ac(a2-6)Gal(b1-4)GlcNAc(b1-2)Man(a1-3)[GlcNAc(b1-2)Man(a1-6)]Man(b1-4)GlcNAc(b1-4)GlcNAc
# Procedure, shortened: as §1
# [7] = molecular target: Neu5Ac(a2-6)Gal(b1-4)GlcNAc(b1-2)Man(a1-3)[GlcNAc(b1-4)][Neu5Ac(a2-6)Gal(b1-4)GlcNAc(b1-2)Man(a1-6)]Man(b1-4)GlcNAc(b1-4)GlcNAc
# Procedure, shortened: as §1
# [8] = molecular target: Neu5Ac(a2-6)Gal(b1-4)GlcNAc(b1-2)Man(a1-3)[Man(a1-6)]Man(b1-4)GlcNAc(b1-4)GlcNAc
# Procedure, shortened: as §1
# [9] = molecular target: Neu5Ac(a2-6)Gal(b1-4)GlcNAc(b1-2)Man(a1-3)[Neu5Ac(a2-3)Gal(b1-4)GlcNAc(b1-2)Man(a1-6)]Man(b1-4)GlcNAc(b1-4)GlcNAc
# Procedure, shortened: as §1
# [10] = molecular target: Neu5Ac(a2-6)Gal(b1-4)GlcNAc(b1-2)Man(a1-3)[Neu5Ac(a2-6)Gal(b1-4)GlcNAc(b1-2)Man(a1-6)]Man(b1-4)GlcNAc(b1-4)GlcNAc
# Procedure, shortened: as §1
# [11] = molecular target: Neu5Ac(a2-6)Gal(b1-4)GlcNAc(b1-2)Man(a1-3)[Neu5Ac(a2-6)Gal(b1-4)GlcNAc(b1-2)Man(a1-6)]Man(b1-4)GlcNAc(b1-4)[Fuc(a1-6)]GlcNAc
# Procedure, shortened: as §1
# [12] = molecular target: Neu5Ac(a2-6)Gal(b1-4)GlcNAc(b1-2)Man(a1-6)Man(b1-4)GlcNAc(b1-4)GlcNAc
# Procedure, shortened: as §1
# [13] = molecular target: Neu5Ac(a2-6)Gal(b1-4)GlcNAc(b1-2)Man(a1-6)[Gal(b1-4)GlcNAc(b1-2)Man(a1-3)]Man(b1-4)GlcNAc(b1-4)GlcNAc
# Procedure, shortened: as §1
# [14] = molecular target: Neu5Ac(a2-6)Gal(b1-4)GlcNAc(b1-2)Man(a1-6)[GlcNAc(b1-2)Man(a1-3)]Man(b1-4)GlcNAc(b1-4)GlcNAc
# Procedure, shortened: as §1
# [15] = molecular target: Neu5Ac(a2-6)Gal(b1-4)GlcNAc(b1-2)Man(a1-6)[Man(a1-3)]Man(b1-4)GlcNAc(b1-4)GlcNAc
# Procedure, shortened: as §1
# [16] = molecular target: Neu5Ac(a2-6)Gal(b1-4)GlcNAc(b1-2)[Neu5Ac(a2-6)Gal(b1-4)GlcNAc(b1-4)]Man(a1-3)[GlcNAc(b1-4)][Neu5Ac(a2-6)Gal(b1-4)GlcNAc(b1-2)[Neu5Ac(a2-6)Gal(b1-4)GlcNAc(b1-6)]Man(a1-6)]Man(b1-4)GlcNAc(b1-4)GlcNAc
# Procedure, shortened: as §1
# [17] = molecular target: Neu5Ac(a2-6)Gal(b1-4)GlcNAc(b1-2)[Neu5Ac(a2-6)Gal(b1-4)GlcNAc(b1-4)]Man(a1-3)[GlcNAc(b1-4)][Neu5Ac(a2-6)Gal(b1-4)GlcNAc(b1-4)Man(a1-6)]Man(b1-4)GlcNAc(b1-4)GlcNAc
# Procedure, shortened: as §1
# [18] = molecular target: Neu5Ac(a2-6)Gal(b1-4)GlcNAc(b1-2)[Neu5Ac(a2-6)Gal(b1-4)GlcNAc(b1-6)]Man(a1-6)[Neu5Ac(a2-6)Gal(b1-4)GlcNAc(b1-2)Man(a1-3)][GlcNAc(b1-4)]Man(b1-4)GlcNAc(b1-4)GlcNAc
# Procedure, shortened: as §1
# [19] = molecular target: Neu5Ac(a2-6)Gal(b1-4)GlcNAc(b1-3)Gal(b1-3)GlcNAc
# Procedure, shortened: as §1
# [20] = molecular target: Neu5Ac(a2-6)Gal(b1-4)GlcNAc(b1-3)Gal(b1-4)GlcNAc
# Procedure, shortened: as §1
# [21] = molecular target: Neu5Ac(a2-6)Gal(b1-4)GlcNAc(b1-3)Gal(b1-4)GlcNAc(b1-2)Man(a1-3)[Neu5Ac(a2-6)Gal(b1-4)GlcNAc(b1-3)Gal(b1-4)GlcNAc(b1-2)Man(a1-6)]GalNAc
# Procedure, shortened: as §1
# [22] = molecular target: Neu5Ac(a2-6)Gal(b1-4)GlcNAc(b1-3)Gal(b1-4)GlcNAc(b1-3)Gal(b1-4)GlcNAc
# Procedure, shortened: as §1
# [23] = molecular target: Neu5Ac(a2-6)Gal(b1-4)GlcNAc(b1-3)Gal(b1-4)GlcNAc(b1-3)Gal(b1-4)GlcNAc(b1-2)Man(a1-3)[Neu5Ac(a2-6)Gal(b1-4)GlcNAc(b1-3)Gal(b1-4)GlcNAc(b1-3)Gal(b1-4)GlcNAc(b1-2)Man(a1-6)]GalNAc
# Procedure, shortened: as §1
# [24] = molecular target: Neu5Ac(a2-6)Gal(b1-4)GlcNAc(b1-3)Gal(b1-4)GlcNAc(b1-3)GalNAc
# Procedure, shortened: as §1
# [25] = molecular target: Neu5Ac(a2-6)Gal(b1-4)GlcNAc(b1-3)Gal(b1-4)GlcNAc(b1-3)[Neu5Ac(a2-6)Gal(b1-4)GlcNAc(b1-3)Gal(b1-4)GlcNAc(b1-6)]GalNAc
# Procedure, shortened: as §1
# [26] = molecular target: Neu5Ac(a2-6)Gal(b1-4)GlcNAc(b1-3)Gal(b1-4)GlcNAc(b1-6)[Gal(b1-3)]GalNAc
# Procedure, shortened: as §1
# [27] = molecular target: Neu5Ac(a2-6)Gal(b1-4)GlcNAc(b1-3)Gal(b1-4)[Fuc(a1-3)]GlcNAc(b1-3)Gal(b1-4)[Fuc(a1-3)]GlcNAc
# Procedure, shortened: as §1
# [28] = molecular target: Neu5Ac(a2-6)Gal(b1-4)GlcNAc(b1-3)GalNAc
# Procedure, shortened: as §1
# [29] = molecular target: Neu5Ac(a2-6)Gal(b1-4)GlcNAc(b1-3)[Neu5Ac(a2-6)Gal(b1-4)GlcNAc(b1-6)]GalNAc
# Procedure, shortened: as §1
# [30] = molecular target: Neu5Ac(a2-6)Gal(b1-4)GlcNAc(b1-6)GalNAc
# Procedure, shortened: as §1
# [31] = molecular target: Neu5Ac(a2-6)Gal(b1-4)GlcNAc(b1-6)[Gal(b1-3)GlcNAc(b1-3)]Gal(b1-4)Glc
# Procedure, shortened: as §1
# [32] = molecular target: Neu5Ac(a2-6)Gal(b1-4)GlcNAc(b1-6)[Gal(b1-3)]GalNAc
# Procedure, shortened: as §1
# [33] = molecular target: Neu5Ac(a2-6)Gal(b1-4)GlcNAc6S
# Procedure, shortened: as §1
# Neu5Ac(a2-6)GalNAc = molecular target: Neu5Ac(a2-6)GalNAc
# Procedure, shortened: as §1
# [34] = molecular target: Neu5Ac(a2-6)GalNAc(b1-4)GlcNAc
# Procedure, shortened: as §1
# [35] = molecular target: Neu5Ac(a2-6)GalNAc(b1-4)GlcNAc6S
# Procedure, shortened: as §1
# [36] = molecular target: Neu5Ac(a2-6)GlcNAc(b1-4)GlcNAc
# Procedure, shortened: as §1
binder,measurement,setting,value
B1,glycan array binding signal (z-score),[1],-0.538
same,glycan array binding signal (z-score),Neu5Ac(a2-6)Gal(b1-4)Glc,-0.341
same,glycan array binding signal (z-score),[2],-0.517
same,glycan array binding signal (z-score),[3],-0.422
same,glycan array binding signal (z-score),[4],-0.061
same,glycan array binding signal (z-score),[5],2.9
same,glycan array binding signal (z-score),[6],0.321
same,glycan array binding signal (z-score),[7],0.453
same,glycan array binding signal (z-score),[8],-0.24
same,glycan array binding signal (z-score),[9],-0.276
same,glycan array binding signal (z-score),[10],-0.375
same,glycan array binding signal (z-score),[11],0.327
same,glycan array binding signal (z-score),[12],0.534
same,glycan array binding signal (z-score),[13],-0.542
same,glycan array binding signal (z-score),[14],-0.243
same,glycan array binding signal (z-score),[15],0.039
same,glycan array binding signal (z-score),[16],-0.082
same,glycan array binding signal (z-score),[17],1.45
same,glycan array binding signal (z-score),[18],-0.2
same,glycan array binding signal (z-score),[19],-0.464
same,glycan array binding signal (z-score),[20],-0.276
same,glycan array binding signal (z-score),[21],-0.291
same,glycan array binding signal (z-score),[22],-0.374
same,glycan array binding signal (z-score),[23],0.457
same,glycan array binding signal (z-score),[24],-0.478
same,glycan array binding signal (z-score),[25],-0.062
same,glycan array binding signal (z-score),[26],-0.305
same,glycan array binding signal (z-score),[27],0.801
same,glycan array binding signal (z-score),[28],-0.366
same,glycan array binding signal (z-score),[29],0.834
same,glycan array binding signal (z-score),[30],-0.302
same,glycan array binding signal (z-score),[31],-0.482
same,glycan array binding signal (z-score),[32],0.542
same,glycan array binding signal (z-score),[33],-0.299
same,glycan array binding signal (z-score),Neu5Ac(a2-6)GalNAc,-0.406
same,glycan array binding signal (z-score),[34],-0.419
same,glycan array binding signal (z-score),[35],0.748
same,glycan array binding signal (z-score),[36],-0.349
